Sequences with one replicate were seen in a single cluster, so their values are uncertain.
The sequences below were run on ATP (assay: switch fluorescence ratio, 500 uM ATP over buffer (Cy3 cluster intensity, sum of 5 cycles each) (fold (ratio)); higher = stronger signal-on switching upon ATP binding; sequences stand for … in TCGTCGGCAGCGTCAGATGTGTATAAGAGACAGTTTTTTTTTTTTTTTTTTTTTTTTT…TC). Settings: aptamer strand: ATP DNA aptamer (quencher-CACCTGGGGGAGTATTGCGGAGGAAGG + anchor), 100 nM annealed; ATP concentration: 500 uM; one replicate.
Method in brief: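 Values give the fluorescence ratio for each switch-domain sequence, averaged from per-cluster ratios of summed target-cycle to summed buffer-cycle Cy3 intensity. The Cy3-labelled switching-strand clusters sat on a modified Illumina MiSeq flow-cell, were annealed to 100 nM quencher-labelled ATP aptamer, and were imaged in selection buffer, then after 15 min with 500 uM ATP at 22 °C. Five cycles ran with NaOH stripping and re-annealing between them, and clusters outside 100-1000 RFU were excluded.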
CTGGAGGTTA showed a switch fluorescence ratio of 1.03.
CTGGAGTTTG was tested, and the switch fluorescence ratio was 0.981.
Work on CTGGATGATA yielded a switch fluorescence ratio of 1.01.
CTGGATGCG was tested, and the switch fluorescence ratio was 0.971.
In the case of CTGGATTGGT, the switch fluorescence ratio is reported as 0.971.
In the case of CTGGCAACTG, the switch fluorescence ratio is reported as 1.08.
CTGGCACGTG showed a switch fluorescence ratio of 0.991.
CTGGCAGGTG was tested, and the switch fluorescence ratio was 4.3.
With CTGGCCTGAT the switch fluorescence ratio was 0.999.
Sequence CTGGCGCAGT has a switch fluorescence ratio of 1.63.
Sequence CTGGCGCGG has a switch fluorescence ratio of 1.02.
CTGGCGTGAC showed a switch fluorescence ratio of 1.14.
For CTGGGAAAGC, the switch fluorescence ratio was 0.977.
Sequence CTGGGCACGA has a switch fluorescence ratio of 1.04.
CTGGGCCAGT showed a switch fluorescence ratio of 1.01.
Sequence CTGGGCGCGT has a switch fluorescence ratio of 1.01.
Work on CTGGGGGAAA yielded a switch fluorescence ratio of 1.01.
In the case of CTGGGGTCA, the switch fluorescence ratio is reported as 0.988.
In the case of CTGGGGTTG, the switch fluorescence ratio is reported as 0.996.
CTGGGTCCTT gave a switch fluorescence ratio of 1.02.
Work on CTGGGTCTGT yielded a switch fluorescence ratio of 0.955.
CTGGTATAAG was tested, and the switch fluorescence ratio was 0.98.
With CTGGTATTGC the switch fluorescence ratio was 1.09.
In the case of CTGGTCCGCG, the switch fluorescence ratio is reported as 1.2.
For CTGGTGCCTG, the switch fluorescence ratio was 0.974.
With CTGGTGCTGG the switch fluorescence ratio was 1.01.
In the case of CTGGTTGAAC, the switch fluorescence ratio is reported as 1.02.
Sequence CTGGTTGACG has a switch fluorescence ratio of 0.995.
CTGTAAAATC showed a switch fluorescence ratio of 1.66.
Sequence CTGTACAGGG has a switch fluorescence ratio of 0.997.
Sequence CTGTATACAC has a switch fluorescence ratio of 1.07.
CTGTATGGTG showed a switch fluorescence ratio of 1.01.
For CTGTATTCTA, the switch fluorescence ratio was 0.977.
For CTGTCAATAG, the switch fluorescence ratio was 6.03.
In the case of CTGTCAGTTA, the switch fluorescence ratio is reported as 1.03.
CTGTCATAAT gave a switch fluorescence ratio of 0.997.
In the case of CTGTCGACTA, the switch fluorescence ratio is reported as 0.982.
Sequence CTGTCGCTTT has a switch fluorescence ratio of 1.05.
For CTGTCTGAGC, the switch fluorescence ratio was 1.02.
Work on CTGTCTTAAT yielded a switch fluorescence ratio of 1.01.
Sequence CTGTGAGTGG has a switch fluorescence ratio of 0.971.
With CTGTGATAGG the switch fluorescence ratio was 0.964.
CTGTGATGTT gave a switch fluorescence ratio of 1.03.
CTGTTAGTCG showed a switch fluorescence ratio of 1.04.
In the case of CTGTTGAATG, the switch fluorescence ratio is reported as 0.962.
CTGTTTAAAT was tested, and the switch fluorescence ratio was 1.01.
CTGTTTAAGC was tested, and the switch fluorescence ratio was 0.987.
CTGTTTTAGT gave a switch fluorescence ratio of 1.
Work on CTTAAAAGTC yielded a switch fluorescence ratio of 0.988.
In the case of CTTAAAATTC, the switch fluorescence ratio is reported as 1.03.
CTTAAAGCAG was tested, and the switch fluorescence ratio was 1.03.
Work on CTTAAAGGTG yielded a switch fluorescence ratio of 1.28.
CTTAACTCGA gave a switch fluorescence ratio of 0.971.
Sequence CTTAATTGAA has a switch fluorescence ratio of 1.
Work on CTTACATAGG yielded a switch fluorescence ratio of 1.03.
Work on CTTACCGGCT yielded a switch fluorescence ratio of 1.12.
Sequence CTTACCTGTT has a switch fluorescence ratio of 1.16.
CTTACGATGT gave a switch fluorescence ratio of 1.03.
Sequence CTTACTGGGT has a switch fluorescence ratio of 1.02.
Sequence CTTAGACACA has a switch fluorescence ratio of 0.863.
With CTTAGAGGTG the switch fluorescence ratio was 1.05.
CTTAGCTCGT gave a switch fluorescence ratio of 0.994.
In the case of CTTAGCTGCG, the switch fluorescence ratio is reported as 1.
Sequence CTTAGCTGCT has a switch fluorescence ratio of 1.01.
In the case of CTTAGGAGTG, the switch fluorescence ratio is reported as 1.03.
CTTAGTATTA gave a switch fluorescence ratio of 0.99.
Sequence CTTAGTCGAG has a switch fluorescence ratio of 0.982.
Sequence CTTAGTGCGA has a switch fluorescence ratio of 1.03.
In the case of CTTAGTGGGA, the switch fluorescence ratio is reported as 1.04.
CTTATCTACC gave a switch fluorescence ratio of 1.04.
CTTATGCAAG was tested, and the switch fluorescence ratio was 1.04.
Work on CTTATGCGGG yielded a switch fluorescence ratio of 1.
Sequence CTTATGTTAC has a switch fluorescence ratio of 1.07.
For CTTATGTTCG, the switch fluorescence ratio was 0.941.
CTTATTAGG showed a switch fluorescence ratio of 0.977.
CTTATTTA gave a switch fluorescence ratio of 0.989.
CTTCAAAGCT gave a switch fluorescence ratio of 1.08.

Source: the supplement of paper PMC10126150
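Note: ATP exposure 15 min at 22 °C before imaging.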
